Measured values taken from the supplement of paper PMC3334620.
Over roughly 33,000 sequences, “E-score (-0.5 to 0.5)” has its median near -0.01; the highest 2% begin near 0.26. Some of the results follow.

target: Ste12 (UniProt P13574); assay: PBM E-score (8-mer binding enrichment) (E-score (-0.5 to 0.5)); higher = stronger / more preferred TF binding; most listed sequences are background and not binding sites; settings: protein concentration: 200 nM; construct: GST-DNA-binding domain
Protocol: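 Universal 'all 10-mer' protein binding microarrays (Agilent AMADID 015681) probed with GST-tagged S. cerevisiae TFs (full-length or DBD) made by in vitro transcription/translation (PURExpress), about 100-200 nM. Bound TF was detected with fluorescent anti-GST. Each ungapped 8-mer (which stands for itself and its reverse complement) is scored by the PBM enrichment score (E-score), a modified Wilcoxon-Mann-Whitney statistic from -0.5 to +0.5, computed with the Universal PBM Analysis Suite. Scale: above 0.35 generally sequence-specific binding.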

| Sequence | PBM E-score |
| --- | --- |
| CACGGCCA | -0.0769 |
| TGCGGTAA | 0.0996 |
| CCAGCAAG | -0.148 |
| GGAGGGGA | 0.366 |
| GCCAACAA | 0.0288 |
| AGCAGACC | -0.14 |
| AAGTCGTG | -0.111 |
| GACTAACA | 0.00808 |
| CCTCTGTA | -0.00872 |
| ACCGGTCC | -0.203 |
| ACAAAACG | 0.35 |
| AATAGTGT | 0.197 |
| CGGTCACA | -0.017 |
| GAGGTAGC | -0.239 |
| CAGCATCC | -0.161 |
| CCGAGGGC | -0.042 |
| GATCCTGA | 0.0809 |
| AACCTAGG | 0.18 |
| GCCGGGAA | -0.198 |
| AAACGACG | 0.197 |
| CGTGCTGA | -0.0362 |
| AGCCTTAC | -0.234 |
| TACCCCCA | -0.0324 |
| CAAGATCC | -0.119 |
| CACCCAAG | -0.101 |

| Sequence | PBM E-score |
| --- | --- |
| GAGAACTA | 0.065 |
| TCATAGCA | 0.119 |
| CTTGAATC | -0.0161 |
| CTGGAGGA | -0.0803 |
| CCGACGAG | 0.0607 |
| CGGGGCAG | -0.125 |
| CGCATTCA | 0.115 |
| GTCTCTTA | 0.0395 |
| CTAGTGGA | -0.0485 |
| AATGCTAC | -0.0559 |
| GAACCGCA | 0.126 |
| AACCTAGA | 0.167 |
| ATGACTGA | 0.0792 |
| AAGCAACG | 0.00339 |
| ATAGCGAC | -0.166 |
| ACATGTCT | 0.00606 |
| AAAGTGAG | 0.0652 |
| ATTCGTCC | 0.0908 |
| ATATACGA | -0.114 |
| CGCAGCGC | -0.129 |
| ACGAAACT | 0.127 |
| AGAGGGCA | -0.313 |
| GCGCCCAC | -0.0585 |
| AGCGCTGA | -0.0271 |
| CATGGCAG | 0.051 |

| Sequence | PBM E-score |
| --- | --- |
| GCTGATCA | 0.0563 |
| TATTGAAA | 0.304 |
| ATTCTTGA | 0.245 |
| ATTGCCCG | -0.0235 |
| ATGATCAA | 0.0665 |
| GGTCCTAC | -0.244 |
| ATCAACCA | 0.00511 |
| CCGAGCCG | 0.0994 |
| CCGGTTAC | 0.0536 |
| ATGTAGCC | -0.0235 |
| ACATTGGA | 0.0307 |
| ACGAAGCT | -0.00048 |
| AGAGCCGC | -0.107 |
| ATTTAATG | 0.272 |
| CGCGCCAA | 0.153 |
| TGAAGGAA | 0.0433 |
| ACGGGTCG | 0.16 |
| ATATCACC | 0.159 |
| CCGCAACA | 0.0766 |
| CGCATCAG | 0.0867 |
| CCGTTCTA | 0.0298 |
| TCTCCAAA | 0.043 |
| ACTCATTC | 0.119 |
| GTATATTA | 0.126 |
| CGCTATCC | 0.101 |

| Sequence | PBM E-score |
| --- | --- |
| AGGTCTAC | -0.142 |
| AAGTGCTG | -0.121 |
| AAAGGCTT | -0.0812 |
| AATGTTGA | 0.0935 |
| TGATAGAA | 0.0265 |
| GATTCTTA | 0.125 |
| ACTAGTCG | -0.0477 |
| CCCCTTAG | -0.173 |
| ACTCTAAG | -0.0984 |
| CGATTGCA | 0.0549 |
| CATCGAAG | -0.0352 |
| AATTCTGG | 0.039 |
| ATTCGTGC | 0.139 |
| AACAACCC | 0.181 |
| CTGTCCTA | -0.125 |
| GATTCGTA | 0.141 |
| CGTGTGAC | -0.0425 |
| GCCATCCA | -0.0231 |
| ATCTAGTA | 0.119 |
| GTCCGTAA | -0.0618 |
| CCGGAGAA | 0.118 |
| ATGCTATG | -0.0427 |
| GCTGTTCC | -0.121 |
| ATCAGGGA | -0.13 |
| AAGTTGGC | 0.0566 |

| Sequence | PBM E-score |
| --- | --- |
| CTTCCACC | -0.104 |
| CCGGTACG | -0.186 |
| AGGAGTAA | -0.0677 |
| GAGCTTAA | -0.128 |
| CCTTGGCG | -0.21 |
| CGAATAGA | -0.119 |
| ACTTATTA | 0.264 |
| ACCAGTTC | 0.0206 |
| CATAAGCG | -0.108 |
| GCACTCGA | -0.0774 |
| GGCTCGTA | 0.137 |
| AACCCTAC | -0.211 |
| ATTATACG | 0.181 |
| ATGGACCC | 0.00707 |
| GTTTACAA | 0.121 |
| CTCATTAC | 0.192 |
| TCCGCCAA | -0.107 |
| GGCATGCA | -0.22 |
| ACTTGCTG | -5e-05 |
| ACGGCCTC | -0.0585 |
| AACAGGGA | 0.158 |
| CGAATGCA | -0.138 |
| CATGTGTA | 0.0862 |
| AGGCCAAG | -0.126 |
| AGGAGCAC | 0.162 |

| Sequence | PBM E-score |
| --- | --- |
| ACATCTTG | -0.151 |
| AGATATTC | -0.0303 |
| AATAAACG | 0.0508 |
| CAGAGTGC | -0.0984 |
| AGCCTCTA | -0.0809 |
| CCCACCCC | 0.391 |
| ATCGGGAC | -0.0587 |
| CGTCTCCA | 0.173 |
| ACAAATAC | 0.189 |
| CAGCACCG | -0.0439 |
| AAGGGATC | -0.0841 |
| CGGAGATA | 0.146 |
| AGTCCAGA | -0.0802 |
| AGGAGCTA | -0.305 |
| ATCCCGTA | 0.0926 |
| GGTCACAC | -0.0972 |
| ACGACTTA | -0.201 |
| GACTGCAC | -0.128 |
| CTGAAGAC | 0.0622 |
| CCGAGTAA | -0.0532 |
| CTACCCTA | -0.0803 |
| CCAGACAA | -0.0391 |
| TACTACGA | -0.0361 |
| TAACCCGA | -0.0489 |
| TCCTCTAA | -0.0676 |

| Sequence | PBM E-score |
| --- | --- |
| TAGGGTGA | 0.141 |
| AGTCGAAC | -0.0912 |
| GAACATGC | -0.182 |
| CAATCGCC | -0.0487 |
| AGCGATCG | 0.00873 |
| ATCAGCAC | 0.0754 |
| AATTCAAT | 0.0899 |
| ACGAAATC | 0.0884 |
| GGGCGTCA | 0.175 |
| GCCGCCAA | -0.166 |
| GATTTCAC | 0.111 |
| CCCTCACC | 0.00597 |
| CGCAAATA | 0.0319 |
| ATACATAT | 0.294 |
| AATGTAAG | 0.11 |
| ACGCAGGA | -0.0172 |
| GATAATAC | 0.0884 |
| GCTTTAAA | 0.155 |
| AAGAGGGG | 0.0546 |
| CCGCGTCG | 0.121 |
| CCGACGCA | -0.132 |
| AACCGGAA | 0.144 |
